A word on the Ki: it is the dissociation constant of the complex between target and ligand, obtained from inhibition or displacement. High values mean lower affinity, low ones higher affinity.

The values that follow come from patent US20050282216A1 (Sanofi, published 2005).

The assay has as its target T1, human IL-13Rβ (human, UniProt Q14627 27-380).
T1 construct: Polypeptide of 380 amino acids; It stood natively on Caki-1 cells and recombinantly on COS-7 and CHO cells; also called hIL-13Rβ; cloned receptor
T1 sequence: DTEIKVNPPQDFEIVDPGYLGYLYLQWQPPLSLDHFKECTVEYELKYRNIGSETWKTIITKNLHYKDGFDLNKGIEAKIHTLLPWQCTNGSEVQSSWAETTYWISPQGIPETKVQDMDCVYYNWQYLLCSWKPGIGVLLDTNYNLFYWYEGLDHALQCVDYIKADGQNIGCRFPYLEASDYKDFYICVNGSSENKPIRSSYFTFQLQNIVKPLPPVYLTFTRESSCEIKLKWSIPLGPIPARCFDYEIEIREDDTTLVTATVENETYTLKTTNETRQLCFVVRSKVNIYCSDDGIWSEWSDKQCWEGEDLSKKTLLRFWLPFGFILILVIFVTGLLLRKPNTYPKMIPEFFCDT
As to the kind of experiment: competition with labelled IL-13 on COS-7 cells transfected with IL-13Rβ cDNA.

B1: IL-13 (unlabelled) (ligand)
chain: not shown
notes: also called interleukin-13; unlabelled IL-13
B1 had a Ki of 1.5 nM.
